Key:
MRSA strain USA300 [1] = experiment: microbe, parasite or virus in culture; type: cell-based, Staphylococcus aureus; conditions: for activity at 1 µg/mL / activity at 10 µg/mL: read-out: Growth
MRSA strain USA300 [2] = conditions: for inhibition of rabbit blood hemolysis compared to diflunisal: 1 μg/mL
MRSA strain USA300 [3] = experiment: microbe, parasite or virus in culture; conditions: Staphylococcus aureus, MRSA|USA300, Erythrocyte, in Oryctolagus cuniculus, DMSO control = 100; for hemolysis at 1 µg/mL: 1 μg/mL compound; for hemolysis at 10 µg/mL: 10 μg/mL compound
MRSA strain USA300 [4] = experiment: Survival of insect larvae injected with MRSA; type: in vivo, Galleria Mellonella; conditions: F12 20 mg/kg every 6 hours; 12 h without
Experimental: FIG. 6 illustrates MRSA Survival curves of insect larvae (Galleria Mellonella) in the presence compound F12 and cephalothin.
Cephalothin is a cephalosporin β-lactam antibiotic to which MRSA is resistant, as shown in the solid black curve. Administration of compound F12 at 20 mg/kg increased the survival from 12 to 42 h (broken line). Combination of F12 (20 mg/kg) with cephalothin (30 mg/kg) further increased survival to 84 h (solid broken line).

MRSA strain USA300 [5] = experiment: RT-qPCR of virulence gene transcription in MRSA
[6] = 10 μg/mL compound, DMSO control = 100

CCCc1cc(C(=O)COc2ccccc2F)c(O)cc1O [4e-5]
activity at 1 µg/mL (MRSA strain USA300 [1]; Staphylococcus aureus): 101% | activity at 10 µg/mL (MRSA strain USA300 [1]; Staphylococcus aureus): 63.9% | inhibition of rabbit blood hemolysis compared to diflunisal (MRSA strain USA300 [2]): greater inhibition of rabbit blood hemolysis | hemolysis at 1 µg/mL (MRSA strain USA300 [3]): 36.4 ± 1.9% | hemolysis at 10 µg/mL (MRSA strain USA300 [3]): 0.4%

CCCc1cc(C(=O)COc2ccc(F)cc2)c(O)cc1O [4e-6]
activity at 1 µg/mL (MRSA strain USA300 [1]; Staphylococcus aureus): 101% | activity at 10 µg/mL (MRSA strain USA300 [1]; Staphylococcus aureus): 78.3% | inhibition of rabbit blood hemolysis compared to diflunisal (MRSA strain USA300 [2]): greater inhibition of rabbit blood hemolysis | hemolysis at 1 µg/mL (MRSA strain USA300 [3]): 34.2 ± 3.2% | hemolysis at 10 µg/mL (MRSA strain USA300 [3]): 1.1 ± 0.1%

CCCc1cc(C(=O)COc2ccccc2C)c(O)cc1O [4e-9]
activity at 1 µg/mL (MRSA strain USA300 [1]; Staphylococcus aureus): 100% | activity at 10 µg/mL (MRSA strain USA300 [1]; Staphylococcus aureus): 2.2% | inhibition of rabbit blood hemolysis compared to diflunisal (MRSA strain USA300 [2]): greater inhibition of rabbit blood hemolysis | hemolysis at 1 µg/mL (MRSA strain USA300 [3]): 20.3 ± 3% | hemolysis at 10 µg/mL (MRSA strain USA300 [3]): -0.4%

CCCc1cc(C(=O)COc2ccc(F)cc2F)c(O)cc1O [4e-12]
activity at 1 µg/mL (MRSA strain USA300 [1]; Staphylococcus aureus): 100% | activity at 10 µg/mL (MRSA strain USA300 [1]; Staphylococcus aureus): 54.2% | inhibition of rabbit blood hemolysis compared to diflunisal (MRSA strain USA300 [2]): greater inhibition of rabbit blood hemolysis | hemolysis at 1 µg/mL (MRSA strain USA300 [3]): 14.4 ± 0.4% | hemolysis at 10 µg/mL (MRSA strain USA300 [3]): 1.1 ± 0.1%

CCCc1cc(C(=O)COc2ccc(F)c(F)c2)c(O)cc1O [4e-14]
activity at 1 µg/mL (MRSA strain USA300 [1]; Staphylococcus aureus): 107% | activity at 10 µg/mL (MRSA strain USA300 [1]; Staphylococcus aureus): 64.9% | inhibition of rabbit blood hemolysis compared to diflunisal (MRSA strain USA300 [2]): greater inhibition of rabbit blood hemolysis | hemolysis at 1 µg/mL (MRSA strain USA300 [3]): 9.6 ± 2.2% | hemolysis at 10 µg/mL (MRSA strain USA300 [3]): -3 ± 0.1%

CCCc1cc(C(=O)COc2cc(F)cc(F)c2)c(O)cc1O [4e-15]
activity at 1 µg/mL (MRSA strain USA300 [1]; Staphylococcus aureus): 103% | activity at 10 µg/mL (MRSA strain USA300 [1]; Staphylococcus aureus): 80% | inhibition of rabbit blood hemolysis compared to diflunisal (MRSA strain USA300 [2]): greater inhibition of rabbit blood hemolysis | hemolysis at 1 µg/mL (MRSA strain USA300 [3]): 11.9 ± 0.5% | hemolysis at 10 µg/mL (MRSA strain USA300 [3]): -1.8 ± 0.1%

CCCc1cc(C(=O)COc2ccc(C(C)(C)C)cc2)c(O)cc1O [4e-20]
activity at 1 µg/mL (MRSA strain USA300 [1]; Staphylococcus aureus): 89.1% | activity at 10 µg/mL (MRSA strain USA300 [1]; Staphylococcus aureus): 2.6% | inhibition of rabbit blood hemolysis compared to diflunisal (MRSA strain USA300 [2]): greater inhibition of rabbit blood hemolysis | hemolysis at 1 µg/mL (MRSA strain USA300 [3]): 7.1 ± 0.1% | hemolysis at 10 µg/mL (MRSA strain USA300 [3]): -1.6 ± 0.1%

CCCCCCc1cc(C(=O)COc2ccc(F)cc2F)c(O)cc1O [4f-12]
activity at 1 µg/mL (MRSA strain USA300 [1]; Staphylococcus aureus): 73.3% | activity at 10 µg/mL (MRSA strain USA300 [1]; Staphylococcus aureus): 15.4% | inhibition at 1 µg/mL (MRSA strain USA300 [1]; Staphylococcus aureus, read-out: inhibition of bacterial growth): 26.7% | survival of larvae (MRSA strain USA300 [4]): 42 h | inhibition of rabbit blood hemolysis compared to diflunisal (MRSA strain USA300 [2]): greater inhibition of rabbit blood hemolysis | inhibition of hemolysis of rabbit erythrocytes (MRSA strain USA300 [2]; 1 μg/ml, listed as F12): 98% | hemolysis at 1 µg/mL (MRSA strain USA300 [3]): 1.9 ± 0.1% | hemolysis at 10 µg/mL (MRSA strain USA300 [3]): -2.5 ± 0.1%

CCCCCCc1cc(C(=O)COc2ccc(C(C)C)cc2)c(O)cc1O [4f-19]
Growth (MRSA strain USA300 [1]; [6]): 92.7% | Hemolysis (MRSA strain USA300 [2]; [6]): 62.0 ± 14.5% | expression of virulence genes (MRSA strain USA300 [5]; 10 μg/mL F19): more moderate decrease | expression of RNAIII (MRSA strain USA300 [5]; 50 μg/ml F19): only moderately reduced | expression of hla (MRSA strain USA300 [5]; 50 μg/ml F19): reduced | expression of psm-α (MRSA strain USA300 [5]; 50 μg/ml F19): reduced | expression of surface protein A (spa) (MRSA strain USA300 [5]; 50 μg/ml F19): only moderately reduced

Reference: patent US20180021277A1, “ANTI-VIRULENCE COMPOSITIONS AND METHODS” (priority 2012, published 2018)
